Source: the BET-seq Pho4 binding data (Le et al. 2018)
Some of the results follow. The energies were worked out here from pooled read counts, against the library average; single values are noisy.

Target: T1, Pho4 (S. cerevisiae) (UniProt P07270)
T1 sequence: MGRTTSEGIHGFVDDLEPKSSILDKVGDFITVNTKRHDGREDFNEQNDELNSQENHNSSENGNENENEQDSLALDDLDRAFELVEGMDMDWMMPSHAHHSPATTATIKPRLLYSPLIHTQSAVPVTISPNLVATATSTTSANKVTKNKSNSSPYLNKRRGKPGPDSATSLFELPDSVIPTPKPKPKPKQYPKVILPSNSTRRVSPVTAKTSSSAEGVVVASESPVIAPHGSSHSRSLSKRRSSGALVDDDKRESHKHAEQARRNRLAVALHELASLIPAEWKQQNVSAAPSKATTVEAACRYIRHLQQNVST
Assay: relative binding free energy (BET-seq); higher = weaker binding
Settings: reference: library average

| Sequence | relative binding free energy [kcal/mol] |
| --- | --- |
| ACTGTCACGTGTGTTG | 0.02 |
| GAGTGCACGTGTACGG | -0.07 |
| TCTGCCACGTGGGTGG | -0.28 |
| TTAATCACGTGAGTCG | 0.32 |
| ATTCACACGTGTGGTT | 0.23 |
| GGGAACACGTGATGCT | 0.23 |
| GTTCTCACGTGCGAGT | 0.31 |
| TGTTTCACGTGTTGTA | 0.23 |
| ATACGCACGTGTTGTT | -0.18 |
| GGATGCACGTGTTTGG | -0.01 |
| TTTGACACGTGAGGTG | 0.18 |
| GGGGGCACGTGGGCTA | -0.23 |
| TTGAGCACGTGATGCA | 0.15 |
| ATTGGCACGTGCACGG | -0.13 |
| TATAGCACGTGGGGAT | -0.2 |
| GTGGACACGTGTTGTT | 0.05 |
| TGTATCACGTGTCATG | 0.16 |
| TCGCTCACGTGGTAGT | 0.04 |
| GTGCACACGTGAAGGG | 0.19 |
| TAGGCCACGTGTATGT | -0.02 |
| GGTGGCACGTGGTGCG | -0.07 |
| TTCTGCACGTGAAGGT | 0.15 |
| TTTTGCACGTGCTTGC | 0.01 |
| GGCTGCACGTGTTAGT | 0.17 |
| TTACTCACGTGGTTTT | 0.17 |

| Sequence | relative binding free energy [kcal/mol] |
| --- | --- |
| ATCTACACGTGGGATG | -0.01 |
| GAGGACACGTGGTGCG | 0.09 |
| GGGGTCACGTGAGGCG | 0.38 |
| TTATACACGTGTTGTT | 0.02 |
| AGGAACACGTGATGGG | 0.24 |
| GTATACACGTGGGGTA | -0.03 |
| GCAGGCACGTGGTGGG | -0.07 |
| CGGTTCACGTGAGATG | 0.3 |
| AATTGCACGTGGGGGA | -0.15 |
| TGTTACACGTGTTGCA | 0.11 |
| GTTAGCACGTGTTTTC | 0.15 |
| GCGGGCACGTGGTGGT | -0.09 |
| CATGGCACGTGAGTTT | 0.06 |
| TGGCCCACGTGGGCGT | -0.22 |
| ATGAGCACGTGTTGCG | 0.03 |
| GGTATCACGTGTGTCG | 0.1 |
| GGCTTCACGTGAGTTA | 0.53 |
| AGTGTCACGTGTTAAG | 0.18 |
| TTGGTCACGTGTGAGA | 0.08 |
| TGTCACACGTGGAGGT | 0.01 |
| TGGGTCACGTGCAGTG | 0.05 |
| TTAAGCACGTGGTAGA | -0.22 |
| ATATGCACGTGAAGGT | 0.23 |
| TTGGGCACGTGCTTAG | -0.12 |
| TTTGTCACGTGTAGAC | 0.3 |

| Sequence | relative binding free energy [kcal/mol] |
| --- | --- |
| AGTCTCACGTGTATAG | 0.17 |
| CATGTCACGTGAATGG | 0.1 |
| GTGTGCACGTGGGAGC | -0.06 |
| TTAAGCACGTGCTGGT | -0.11 |
| CCTGGCACGTGTAGGT | -0.14 |
| TTTCACACGTGGTCTG | 0.05 |
| TGTGTCACGTGCACTG | 0.07 |
| TTGAGCACGTGTAATT | 0.03 |
| AGATTCACGTGGAGAT | 0.18 |
| GTGATCACGTGTCTGG | 0.1 |
| AGCGGCACGTGTAGAG | -0.09 |
| AATAACACGTGGGTGA | -0.18 |
| AAGATCACGTGTTTTA | 0.16 |
| GAGAGCACGTGTGTGG | -0.12 |
| TTTATCACGTGTTTTT | 0.35 |
| TTGGTCACGTGCTCGG | -0.08 |
| TAGGGCACGTGGTGGC | -0.12 |
| ATTGTCACGTGCTCGT | 0.14 |
| GGGTCCACGTGTTGCG | -0.05 |
| TTTGTCACGTGAAATT | 0.37 |
| TTACTCACGTGGTGTG | 0.13 |
| TCTTTCACGTGCTGGG | 0.31 |
| TGATGCACGTGGTAAG | 0.04 |
| TTTATCACGTGAATCT | 0.28 |
| TATCGCACGTGCTGGT | -0.05 |

| Sequence | relative binding free energy [kcal/mol] |
| --- | --- |
| AGTGTCACGTGGTGCT | 0.01 |
| GCGGTCACGTGGTTTT | 0.21 |
| AGGGACACGTGACGTG | 0.2 |
| CGGGTCACGTGGGAGT | 0.08 |
| GTGCGCACGTGGGGCA | -0.21 |
| TGAAACACGTGTTGTC | 0.07 |
| CGCGGCACGTGTGATG | -0.09 |
| TTGGGCACGTGCTAAA | 0 |
| AGTAGCACGTGCGTGG | -0.19 |
| AGGTACACGTGTTTCG | 0.02 |
| GGCTGCACGTGATAGT | 0.19 |
| CGATACACGTGGAGTG | -0.03 |
| TCTCTCACGTGTGTGT | 0.21 |
| AGTTTCACGTGTGATT | 0.23 |
| TGTGACACGTGGCGTA | -0.19 |
| GCGTTCACGTGTAATG | 0.26 |
| AAAAGCACGTGTGGGT | -0.03 |
| TGATACACGTGAGGAT | 0.19 |
| GTAGTCACGTGCTAGT | 0.03 |
| GGCGGCACGTGGCGTG | -0.2 |
| TGGGTCACGTGTGCAG | 0.2 |
| TTGCTCACGTGTTGAG | 0.21 |
| GAATACACGTGTGGAT | 0.11 |
| AGGTCCACGTGGAAGG | -0.08 |
| TAGATCACGTGCGGGT | -0.04 |

| Sequence | relative binding free energy [kcal/mol] |
| --- | --- |
| ATTATCACGTGGGGCG | -0.05 |
| AAGATCACGTGATGTG | 0.18 |
| GAATGCACGTGCGGTT | -0.07 |
| AGTCGCACGTGGTAGG | -0.19 |
| TTTCACACGTGGTTGG | 0.04 |
| GAAAGCACGTGTTTAT | 0.06 |
| GACTTCACGTGTTTTA | 0.4 |
| TTTGGCACGTGTGCAT | -0.08 |
| ATAATCACGTGGGGGG | 0.05 |
| TAGATCACGTGAATTT | 0.3 |
| TACATCACGTGGTGAG | 0.03 |
| CGTGGCACGTGGGGGA | -0.19 |
| GAATCCACGTGGTGGG | 0.14 |
| GTTGGCACGTGACGAG | 0.06 |
| GTTTTCACGTGACGTG | 0.45 |
| ACATTCACGTGGGTCG | 0.24 |
| GAAGTCACGTGTTTTG | 0.23 |
| AGGAGCACGTGGTATT | -0.11 |
| GGAGTCACGTGGTGGC | 0.05 |
| GGTAGCACGTGGAATT | 0.08 |
| TGTCGCACGTGGGACA | -0.11 |
| TAGTTCACGTGGTCTG | 0.31 |
| TGGGCCACGTGTTGAT | -0.17 |
| GGCGGCACGTGGAAGA | 0.08 |
| GGGGCCACGTGTTGTA | -0.07 |

| Sequence | relative binding free energy [kcal/mol] |
| --- | --- |
| GCTTGCACGTGTTTGT | 0.04 |
| TGGTTCACGTGGCAGA | 0.29 |
| ATTGTCACGTGAGCGG | 0.27 |
| CGTGGCACGTGCAAGG | -0.16 |
| ATATTCACGTGAGTCG | 0.48 |
| TTAAACACGTGAGATG | 0.22 |
| CATTGCACGTGAGGTT | 0.11 |
| TTTGCCACGTGTGCTG | -0.11 |
| TCTTTCACGTGTGTCG | 0.27 |
| CAGTGCACGTGGGGGG | -0.27 |
| GGTTACACGTGTGATG | 0.19 |
| GTGGTCACGTGCGAGA | 0.2 |
| TGTGACACGTGGCTTA | -0.14 |
| GTGTACACGTGTTGGT | 0.11 |
| TATGGCACGTGTGTTC | -0.02 |
| GTAAGCACGTGCTGAT | 0.08 |
| TGCAGCACGTGCGTTT | -0.06 |
| GCTGGCACGTGAATGA | 0.34 |
| TGATTCACGTGTAATG | 0.2 |
| GTCGACACGTGGAGAG | 0.2 |
| GGGTTCACGTGGTGTT | 0.3 |
